About 1,200 (2.5%) of roughly 48,000 compounds were called active. Roughly 2% stayed inconclusive and do not appear here.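 Rule for the calls: active = activation of at least 60% and not above a set upper limit (about 1 call in 100 departs from these limits); inconclusive = activation of 40% to 60%, or above that upper limit; inactive = activation under 40%.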 This is one part of the list.

UniProt O75388, sequence (O75388 whole entry, looked up): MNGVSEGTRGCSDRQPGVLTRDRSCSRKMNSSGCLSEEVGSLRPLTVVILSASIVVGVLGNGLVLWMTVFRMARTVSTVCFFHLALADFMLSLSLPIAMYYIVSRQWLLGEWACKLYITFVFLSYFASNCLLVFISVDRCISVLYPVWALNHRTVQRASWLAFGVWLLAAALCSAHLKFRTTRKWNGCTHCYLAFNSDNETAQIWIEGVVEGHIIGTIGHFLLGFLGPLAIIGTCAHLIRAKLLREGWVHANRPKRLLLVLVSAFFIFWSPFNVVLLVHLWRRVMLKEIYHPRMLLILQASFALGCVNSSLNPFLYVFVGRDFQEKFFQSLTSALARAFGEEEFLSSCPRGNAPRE

The target of this assay is Probable G-protein coupled receptor 32 (Homo sapiens) (UniProt O75388). The assay is described as follows: qHTS for Agonists of Human Resolvin D1 Receptor DRV1. Note: 0% is about no effect. Particulars: CHO-K1 GPR32 beta-arrestin PathHunter luminescence, 90 min; at 76.9 µM; stronger effect = higher value; zero percent set by DMSO-only wells. Summed up:
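Readings come from a cell-based beta-arrestin complementation format: CHO-K1 GPR32 stable cells (2,500/well) treated 90 min with compounds, then beta-Gal substrate added for 1 h before chemiluminescence imaging.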
A general note: In qHTS, concentration-response curves come from the screen itself.
In the case of `COc1ccc(-c2nc3ccccc3s2)cc1NC(=O)c1cc(OC)c(OC)c(OC)c1`, the activation is inactive: 18.9%.

For `COc1ccc(NC(=O)C(NC(=O)/C=C\c2ccc3c(c2)OCO3)c2ccc(C)cc2)cc1` (stereo not given), the activation was inactive: -5.17%.

Consider `CCc1ccc(-n2c(N3CCN(c4ccc(F)cc4)CC3)nc3ccccc3c2=O)cc1`, for which the activation was inactive: -31.2%.

On to `O=C(c1ccc2c(c1)N(Cc1ccccc1)C(=O)c1ccccc1S2(=O)=O)N1CCOCC1`, for which the activation is inactive: -23.5%.

For the compound `Cc1c(C2=CCN(S(=O)(=O)c3ccc(Br)cc3)CC2)c2ccccc2n1CC(=O)N1CCCC1`, the activation is inactive: -16.1%.

As to `Cc1ccc(CNC(=O)CSc2c3c(nc4ccc(Cl)cc24)CCCC3)cc1`, the activation is inactive: -9.11%.

For the compound `Cc1ccccc1CN1CCc2nc(N3CCN(c4ccccn4)CC3)ncc2C1`, the activation is inactive: -1.24%.

Consider `Cc1ccc2nc(-c3ccc(C)c(NC(=O)Cc4ccccc4)c3)oc2c1`, for which the activation was inactive: -19.1%.

For `CCOc1ccc(NC(=O)CN(Cc2ccccc2)S(=O)(=O)c2ccc(Cl)cc2)cc1`, the activation is inactive: 47.3%.

As to `Cc1cc(C)cc(NS(=O)(=O)c2ccc3c(c2)OCC(C(=O)N2CCCC2)O3)c1` (stereo not given), the activation was inactive: -8.1%.

Turning to `COc1ccc2nc3oc(C(=O)Nc4cccc(C(F)(F)F)c4)cc3cc2c1`, the activation is inactive: 3.76%.

Turning to `CCNC(=O)c1c(NC(=O)COc2ccc(F)cc2)sc2c1CCCC2`, the activation is inactive: -3.56%.

With `O=C(Nc1ccc(Br)cc1)N1CCC(CN2CCCC2)CC1`, the activation is inactive: -9.32%.

With `CCCC12CN3CC(C)(CN(C1)C3c1ccccc1Cl)C2=O` (stereo not given), the activation is inactive: -8.25%.

Turning to `CCc1c(C)sc2c1CCN(C(=O)Nc1ccccc1C(=O)OC)C2c1ccc(F)cc1` (stereo not given), the activation was inactive: -4.25%.

Turning to `Cc1ccccc1NC(=O)CS(=O)(=O)c1cccc2nsnc12`, the activation is inactive: -15.4%.

In the case of `Cc1c(Cl)cccc1NC(=O)c1ccc(NC(=O)N2CCSc3ncccc32)cc1`, the activation is inactive: -1.35%.

With `CCOc1ccc(C2C(C(=O)Nc3ccc(OC)cc3)=C(C)Nc3nc(SCc4ccc(Cl)cc4)nn32)cc1` (stereo not given), the activation is inactive: -32.1%.

On to `COc1ccc(NC(=O)CSc2c3c(nc4ccc(Cl)cc24)CCCC3)cc1Cl`, for which the activation is inactive: -21.6%.

`COc1ccc(N2CCN(CCCNC(=O)c3ccc4nc(CCc5ccccc5)oc4c3)CC2)cc1`: the activation is inactive: -6.74%.

As to `O=C(c1ccc2c(c1)N(Cc1ccc(F)cc1)CCS2)N1CCN(c2ccccc2)CC1`, the activation is inactive: -34.3%.

With `COc1ccc2c(c1)CC(C(=O)NCCN1CCN(c3cccc(Cl)c3)CC1)CO2` (stereo not given), the activation was inactive: -14.8%.

As to `CCCc1ccc(OCC(=O)Nc2scc(-c3cccs3)c2C(=O)OC)cc1`, the activation is inactive: -4.56%.

Turning to `NC(=O)NC1NC(=O)NC1=O` (stereo not given), the activation was inactive: -8.55%.

As to `Cc1nc(Oc2ccccc2C)c2oc3ccccc3c2n1`, the activation was inactive: -7.51%.

For `Cc1ccc(CNC(=O)c2sc3nc4n(c(=O)c3c2C)CCCC4)cc1`, the activation was inactive: -6.57%.

In the case of `C#CCN1C(=O)C(O)(CC(=O)c2ccc(OC)c(OC)c2)c2cc(Br)ccc21` (stereo not given), the activation was inactive: -20%.

As to `COc1ccc(C2=NN(S(C)(=O)=O)C(c3cn(-c4ccccc4)nc3-c3cccs3)C2)cc1` (stereo not given), the activation was inactive: -5.7%.

With `Cc1ccc(S(=O)(=O)N(CC(O)Cn2c3ccccc3c3ccccc32)c2cccc(C(=O)N(C)C)c2)cc1` (stereo not given), the activation is inactive: 26.7%.

Regarding `COc1ccc(C(=O)NCC(c2ccc3c(c2)OCO3)N2CCOCC2)cc1` (stereo not given), the activation is inactive: -10.7%.

In the case of `Cc1ccc(CN2C(=O)c3ccccc3Sc3ccc(C(=O)NCc4ccco4)cc32)cc1`, the activation is inactive: -20.2%.

Take `CCN(C(=O)C1CCC(CNS(=O)(=O)c2cccc3nsnc23)CC1)c1cccc(C)c1` (stereo not given): the activation was inactive: 24.3%.

Take `CC1(C)CC(=O)c2cc(C(=O)Nc3ccc(Br)cc3)c(=O)[nH]c2C1`: the activation was inactive: 4.5%.

Turning to `COc1ccc(NC(=O)C2=C(C)Nc3ncnn3C2c2ccc(C)o2)cc1` (stereo not given), the activation is inactive: -4.72%.

For `CCCn1c(=N)c(C(=O)NCc2cccnc2)cc2c(=O)n3cccc(C)c3nc21`, the activation was inactive: 8.36%.

Regarding `COc1cccc(-c2ccnc3c(-c4ccc(F)cc4)c(C)nn23)c1`, the activation is inactive: -2.31%.

For the compound `Cc1ccc(Oc2nc3c(c(=O)n(Cc4ccccc4)c(=O)n3C)n2C)cc1C`, the activation was inactive: 46%.

With `Cc1oc2ncnc(N3CCOCC3)c2c1C(=O)N1CCN(c2cccc(C(F)(F)F)c2)CC1`, the activation is inactive: -8.16%.

For `O=C(Cc1ccc(NC(=O)N2CCSc3ncccc32)cc1)NCc1ccccc1`, the activation was inactive: 3.58%.

Regarding `Cc1cc(C)cc(NC(=O)Cn2c(=O)n(C(C)C)c(=O)c3oc4ccccc4c32)c1`, the activation was inactive: -5.54%.

`CN(C)CCOC(c1ccc(Cl)cc1)c1ccccn1` (stereo not given): the activation is inactive: -3.18%.

`Cc1ccc(-c2nc3ccccn3c2Nc2ccc3c(c2)OCCO3)s1`: the activation was inactive: -20.2%.

As to `CCOc1ccccc1NC(=O)N(C)CCc1c(C)nn(CC)c1C`, the activation is inactive: -7.14%.

On to `CCOc1ccc(C2N3CC4(C(C)C)CN2CC(C(C)C)(C3)C4=O)cc1OC` (stereo not given), for which the activation is inactive: -2.34%.

As for `COc1ccc(OCC(=O)N2CCN(C(=O)c3cc(OC)c(OC)c(OC)c3)CC2)cc1`, the activation was inactive: -28.9%.

Consider `COc1ccc(/C=C/C(=O)N2CCC(c3nc4ccccc4o3)CC2)cc1OC`, for which the activation was inactive: -8.52%.

Take `Cc1ccc(COc2ccc3oc(-c4ccccc4)c(C(=O)O)c3c2)cc1`: the activation is inactive: 22.9%.

Consider `Cc1ccc(NC(=O)c2ccc(=O)n(CC(=O)Nc3c(C)cc(C)cc3C)n2)cc1`, for which the activation was inactive: -18.2%.

`COc1ccc(C(=O)N2CC(=O)Nc3ccc(C)cc3C2c2ccccc2)cc1OC` (stereo not given): the activation is inactive: -12.5%.

Turning to `CCOc1ccc(C2C=C(c3cccc(OC)c3)Nc3nnnn32)cc1` (stereo not given), the activation was inactive: -1.07%.

As for `COc1ccc(-n2nc(C(=O)Nc3ccc(Br)cc3C)c3c4ccccc4n(C)c3c2=O)cc1`, the activation was inactive: 2.72%.

`O=C1CCc2ccc(OCCCCN3CCN(c4cccc(Cl)c4Cl)CC3)cc2N1`: the activation was active: 89.7%.

As to `COc1cccc(C(=O)Nc2ccc(-n3nncc3-c3ccc(Br)cc3)cc2)c1OC`, the activation was inactive: -16.4%.

Take `Cc1cc(C)n2c(Nc3ccccc3C)c(-c3cccs3)nc2n1`: the activation was inactive: 5.64%.

For `CC(C)(C)c1ccc(C(=O)NNc2ncnc3c2cnn3-c2ccccc2)cc1`, the activation was active: 104%.

In the case of `CCN(C(=O)Cn1c(SCC(=O)Nc2ccc(OC)cc2)nc2ccccc21)c1cccc(C)c1`, the activation was inactive: -13.2%.

On to `COc1ccc(NC(=O)c2cc3c(=O)n(C)c4ccccc4c3s2)cc1Cl`, for which the activation is inactive: -4.29%.

Take `CCOC(=O)C1CCCN(C(=O)c2c(C)nn(-c3ccc(F)cc3)c2-n2cccc2)C1` (stereo not given): the activation is inactive: -16.2%.

Turning to `O=C(Nc1ccc(F)cc1)C1CCN(c2nc3ccccc3n3cccc23)CC1`, the activation is inactive: -1.91%.

In the case of `Cc1ccc(OCCSc2nc3ccc(NC(=O)c4ccc5c(c4)OCO5)cc3s2)cc1`, the activation was inactive: -1.04%.

In the case of `CSc1ccc(CCNC(=O)CCn2c(=O)c3cccn3c3cccnc32)cc1`, the activation is inactive: -11.4%.

In the case of `CCCc1ccc(OC(=O)CSc2nnc(-c3cccs3)o2)cc1`, the activation is inactive: 0.128%.

Turning to `CCS(=O)(=O)N1CCc2cc(C(=O)Nc3cccc(C)c3C)ccc21`, the activation was inactive: 7.52%.

For `CCOc1ccc(-c2cc3c(=O)n(CC(=O)NCc4ccc(OC)cc4)ccn3n2)cc1`, the activation was inactive: -1.12%.

As for `O=C(NC1(C(F)(F)F)NC(=O)N(CCc2ccccc2)C1=O)c1ccccc1Cl` (stereo not given), the activation was inactive: 1.89%.

Take `CC(=O)c1cccc(NCc2ccccc2-c2nnc(-c3ccccc3)o2)c1`: the activation was inactive: 0.77%.

With `Cc1cccc(NC(=O)CSc2nnc(N)s2)c1`, the activation was inactive: -22.8%.

In the case of `CCOc1ccc(S(=O)(=O)N2CCC(N3CCN(Cc4ccc(F)cc4)C(=O)C3=O)CC2)cc1`, the activation was inactive: 5.82%.

Take `CCOC(=O)C(CC)Sc1ncnc2sc3c(c12)CCCC3` (stereo not given): the activation was inactive: 46.8%.

With `O=C(CCn1cccn1)NCc1ccc(Cl)cc1`, the activation was inactive: -3.22%.

Regarding `Cc1nc(-n2nc(C)c(Cc3ccccc3Cl)c2C)sc1C(=O)N1CCC(C)CC1`, the activation is inactive: -3.02%.

On to `Cc1oc2ccc(O)c(CN3CCCCCC3)c2c1C(=O)Nc1cccc(Cl)c1C`, for which the activation was inactive: -10.9%.

As to `Cc1cccc(-n2ncc(C(=O)N3CCc4ccccc4C3)c2C2CCN(C(=O)OC(C)(C)C)CC2)c1`, the activation is inactive: -17.8%.

As for `CCN(CC)CCCNC(=O)c1ccc2c(c1)N(Cc1c(F)cccc1Cl)C(=O)c1ccccc1S2`, the activation is inactive: 33%.

As for `CCSc1ncc(Cl)c(C(=O)N(Cc2ccccc2Cl)C2CCS(=O)(=O)C2)n1` (stereo not given), the activation is inactive: -4.28%.

As for `O=C(C1CCN(S(=O)(=O)c2cccs2)CC1)N1CCN(c2cccc(Cl)c2)CC1`, the activation is inactive: 14.6%.

Take `Cc1nn2c(=O)cc(COC(=O)c3cccc(NC(=O)COc4ccc(C)c(C)c4)c3)nc2s1`: the activation was inactive: -13.7%.

Consider `Cc1c(-c2nsc(NC(=O)c3cccs3)n2)nnn1-c1ccc(Cl)cc1`, for which the activation is inactive: 11.6%.

As for `N#Cc1c[nH]n2c(NC3CCCCC3)c(-c3ccccc3F)nc12`, the activation was inactive: -18.2%.

`O=C(NCCc1ccc(Cl)cc1)C(=O)NCC(c1ccco1)S(=O)(=O)c1cccs1` (stereo not given): the activation is inactive: -2.22%.

Take `COC(=O)c1nnn(CC(=O)Nc2cc(F)ccc2F)c1C(=O)OC`: the activation was inactive: -0.449%.

Turning to `CSc1ncc2c(n1)-c1ccccc1N(Cc1ccc(F)cc1)S2(=O)=O`, the activation was inactive: -3.58%.

On to `Cc1ccc(C)c(NC(=O)CCc2nc(-c3ccc(C(C)(C)C)cc3)no2)c1`, for which the activation is inactive: 18.9%.

For `CC(=O)Nc1ccc(OCCOCCOc2ccc(NC(C)=O)cc2)cc1`, the activation is inactive: -16.7%.

Turning to `COc1cc(CNC(=O)CSCc2nc3cccnc3n2C2CCCCC2)cc(OC)c1OC`, the activation is inactive: -21.3%.

The record behind these values is PubChem BioAssay AID1346428 (National Center for Advancing Translational Sciences (NCATS), 2018).
